Assay results taken from PubChem BioAssay AID624417 (National Center for Advancing Translational Sciences (NCATS), 2012).
The campaign covered roughly 410,000 compounds. About 6,400 (1.6%) were called active. The shares of active, inactive and inconclusive entries below differ from those in the screen. Calls come from the whole dose curve; as a rule, active = well fitted inhibition curve with a large enough effect; inconclusive = small, poorly fitted or top-dose-only effect; inactive = no such curve, though single readings can be large or run the other way. No potency is given beside an inconclusive call; the fits are too rough.

molecular target: Glucagon-like peptide 1 receptor (Homo sapiens) (UniProt P43220); assay: qHTS of GLP-1 Receptor Inverse Agonists (Inhibition Mode); conditions: HEK293 GLP-1R CRE-luciferase, luminescence, 24 h, GLP-1R form is constitutively active; series mostly up to 38.3 µM; note: nearly all actives have a fitted effect of over 55% in size
In short: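 HEK293 cells stably co-expressing a cAMP-responsive luciferase reporter and constitutively active GLP-1R were seeded, incubated 12 h, then exposed to compounds for 24 h at 37 C. Luminescence was read 12 min after detection reagent; inverse agonists lower signal.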
Potency is the fitted concentration of half-maximal effect; tags give direction and shape of the fitted curve.

UniProt P43220, sequence (P43220 whole entry, looked up): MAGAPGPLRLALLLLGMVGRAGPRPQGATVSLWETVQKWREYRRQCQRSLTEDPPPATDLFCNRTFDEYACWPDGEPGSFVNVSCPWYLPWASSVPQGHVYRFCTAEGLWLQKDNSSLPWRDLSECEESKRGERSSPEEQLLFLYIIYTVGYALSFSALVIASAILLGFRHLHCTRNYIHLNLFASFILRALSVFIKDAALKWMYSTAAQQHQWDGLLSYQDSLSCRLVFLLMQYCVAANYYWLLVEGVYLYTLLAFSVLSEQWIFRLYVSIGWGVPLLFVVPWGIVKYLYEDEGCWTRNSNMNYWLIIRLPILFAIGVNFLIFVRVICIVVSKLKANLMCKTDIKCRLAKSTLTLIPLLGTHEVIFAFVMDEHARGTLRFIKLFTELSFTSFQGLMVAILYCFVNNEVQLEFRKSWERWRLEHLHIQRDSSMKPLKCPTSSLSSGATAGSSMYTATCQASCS

Question: How did the Potency turn out when `O=[N+]([O-])c1ccc(N2CCCCCC2)c(S(=O)(=O)N2CCCCC2)c1` was run?
Answer: Its Potency is inconclusive [inhibitor, single point].

Question: Which Potency does the source give for `CCOC(=O)c1ccc2[nH]c3ccccc3c2c1` here?
Answer: Its Potency is inconclusive [inhibitor, single point].

Question: For `O=C1c2ccccc2NC(c2cccc(F)c2)N1Cc1ccccc1` (stereo unspecified), which Potency is on record?
Answer: The Potency was inconclusive [inhibitor, partial curve, poor fit].

Question: With `CCc1nccn1CCC(=O)N1CCCC(Nc2ccc(F)cc2)C1` (stereo unspecified) as the molecule, how does the Potency read?
Answer: The Potency was inconclusive [inhibitor, full curve].

Question: Which Potency does the source give for `CCOc1ccc2ccccc2c1/C=N/NC(=O)CNC(=O)Cc1ccccc1` here?
Answer: Its Potency is inconclusive [inhibitor, partial curve, poor fit].

Question: For `COc1ccccc1C1/C(=C(/O)c2ccc(C)cc2)C(=O)C(=O)N1CC(C)O` (stereo unspecified), which Potency is on record?
Answer: The Potency was “inactive”.

Question: With `COC(=O)c1sccc1NC(=O)c1ccccc1Br` as the molecule, how does the Potency read?
Answer: Its Potency is inconclusive [inhibitor, single point].

Question: With `O=C(Nc1ccccc1N1CCCCC1)c1ccc([N+](=O)[O-])o1` as the molecule, how does the Potency read?
Answer: Its Potency is inconclusive [inhibitor, single point].

Question: For `CC(=O)Nc1ccc(S(=O)(=O)N2CCC(c3nc4ccc(C)cc4[nH]3)CC2)cc1`, which Potency is on record?
Answer: Its Potency is “inactive”.

Question: Which Potency does the source give for `Cc1cccc2c(CCNC(=O)c3ccc([N+](=O)[O-])cc3)c[nH]c12` here?
Answer: Its Potency is inconclusive [inhibitor, partial curve, poor fit].

Question: With `COc1cccc(-c2c(-c3cc(OC)cc(OC)c3)n(C)c3ccc(Br)cc23)c1` as the molecule, how does the Potency read?
Answer: Its Potency is inconclusive [inhibitor, partial curve, poor fit].

Question: With `CC1=C(C(=O)OCC(C)C)C(c2ccccc2Cl)NC(=O)N1C` (stereo unspecified) as the molecule, how does the Potency read?
Answer: Its Potency is inconclusive [inhibitor, single point].

Question: `O=C(CN(c1ccccc1F)S(=O)(=O)c1ccccc1)Nc1ccc2c(c1)OCCO2` was tested. Which Potency did it give?
Answer: The Potency was inconclusive [inhibitor, partial curve, poor fit].

Question: With `COc1cc(-c2ccc3c(=O)c4ccccc4sc3c2)cc(OC)c1OC` as the molecule, how does the Potency read?
Answer: The Potency was “inactive”.

Question: Which Potency does the source give for `C/C(CCc1ccc2c(c1)OCO2)=N\N=C(/N)SC1CC(=O)N(c2ccccc2F)C1=O` (stereo unspecified) here?
Answer: Its Potency is inconclusive [inhibitor, single point].

Question: Which Potency does the source give for `C=CCn1c(-c2cccnc2)n[nH]c1=S` here?
Answer: The Potency was “inactive”.

Question: `COc1cc2c(cc1OC)C(c1ccc(-c3ccccc3Cl)o1)=NCC2` was tested. Which Potency did it give?
Answer: The Potency was inconclusive [inhibitor, single point].

Question: Which Potency does the source give for `O=[N+]([O-])c1ccc(Cl)cc1C=NNc1ccccn1` here?
Answer: The Potency was inconclusive [inhibitor, partial curve].

Question: For `CN(C)S(=O)(=O)c1ccc(NC(=O)/C=C/c2ccccc2Cl)cc1`, which Potency is on record?
Answer: The Potency was inconclusive [inhibitor, partial curve, poor fit].

Question: Which Potency does the source give for `CCCCOC(=O)c1ccc(Nc2nc3ccc(C)cc3n3cnnc23)cc1` here?
Answer: The Potency was “inactive”.

Question: How did the Potency turn out when `Cc1ccc(/C=C2\SC(=S)N(CCC(=O)NNC(=O)c3cccc(O)c3)C2=O)cc1` was run?
Answer: Its Potency is inconclusive [inhibitor, partial curve, poor fit].

Question: `Oc1c(C(c2ccc(Cl)cc2Cl)N2CCCC2)sc2nc(-c3ccco3)nn12` (stereo unspecified) was tested. Which Potency did it give?
Answer: Its Potency is “inactive”.

Question: With `Cc1ccc(N=CC=C2OC(C)(C)C(C)(C)O2)c(C)c1` as the molecule, how does the Potency read?
Answer: The Potency was inconclusive [inhibitor, partial curve].

Question: `O=C(/C=C/c1cc(Br)ccc1F)Nc1cccnc1` was tested. Which Potency did it give?
Answer: The Potency was inconclusive [inhibitor, single point].

Question: With `COC(=O)C1=C(C(=O)OC)[C@@H]2N(Cc3ccccc3)c3ccccc3[C@@]23C[C@@H](C(=O)OC)N(C(=O)COCc2ccccc2)C3=N1` as the molecule, how does the Potency read?
Answer: The Potency was inconclusive [inhibitor, single point].

Question: How did the Potency turn out when `NC1=NC[C@@H](Cc2ccc(O)cc2)N1CCC12CC3CC(CC(C3)C1)C2` was run?
Answer: The Potency was active: 8.91 µM.

Question: How did the Potency turn out when `COc1ccc(Nc2nc(C)c(-c3ccccc3)s2)cc1` was run?
Answer: The Potency was inconclusive [inhibitor, single point].

Question: For `COc1cc(COc2ccc(S(=O)(=O)N3CCOCC3)cc2[N+](=O)[O-])ccc1OC(F)F`, which Potency is on record?
Answer: Its Potency is inconclusive [inhibitor, single point].

Question: How did the Potency turn out when `COC(=O)c1c(NS(=O)(=O)Cc2ccccc2)sc2c1CCCC2` was run?
Answer: Its Potency is inconclusive [inhibitor, partial curve, poor fit].

Question: Which Potency does the source give for `CC(C)c1cccc(C(C)C)c1NC(=O)COC(=O)c1ccc(OCC(=O)Nc2cccc(C(F)(F)F)c2)cc1` here?
Answer: Its Potency is inconclusive [inhibitor, partial curve, poor fit].

Question: Which Potency does the source give for `CCOc1ccc(CCNC(=O)CCSCc2cccc(Cl)c2)cc1OCC` here?
Answer: Its Potency is inconclusive [inhibitor, single point].

Question: How did the Potency turn out when `COc1ccc(-c2noc(C3CCCN(C(=O)c4cccc(C)c4)C3)n2)cc1` (stereo unspecified) was run?
Answer: Its Potency is inconclusive [inhibitor, partial curve, poor fit].

Question: With `O=C(CNC(=O)c1ccncc1)N/N=C/c1cc(Br)ccc1OCc1ccccc1` as the molecule, how does the Potency read?
Answer: The Potency was inconclusive [inhibitor, single point].

Question: Which Potency does the source give for `COc1ccc(NC(=O)CN(C)C(=O)/C=C/c2cn(Cc3ccccc3)nc2-c2cccnc2)cc1` here?
Answer: Its Potency is “inactive”.

Question: With `CCc1nc(NC(C)(C)C)c2cnn(-c3ccccc3)c2n1` as the molecule, how does the Potency read?
Answer: Its Potency is active: 2 µM.

Question: For `O=C(Nc1ccc(F)cc1)c1ccc(CSc2ccc(Cl)cc2)o1`, which Potency is on record?
Answer: Its Potency is inconclusive [inhibitor, partial curve, poor fit].

Question: Which Potency does the source give for `COc1ccc(-c2coc3c(C(=O)NCC4CCOCC4)cccc23)c(C)c1` here?
Answer: The Potency was inconclusive [inhibitor, partial curve, poor fit].

Question: With `Cc1cccc(C(=O)NC(NC(=S)Nc2ccc(S(N)(=O)=O)cc2)C(Cl)(Cl)Cl)c1` (stereo unspecified) as the molecule, how does the Potency read?
Answer: The Potency was inconclusive [inhibitor, single point].

Question: For `Cc1cccc(NC2CCCCC2NS(=O)(=O)c2ccccc2)c1` (stereo unspecified), which Potency is on record?
Answer: The Potency was inconclusive [inhibitor, single point].

Question: For `Cc1ccccc1N=Nc1ccc(O)c2ncccc12`, which Potency is on record?
Answer: The Potency was “inactive”.

Question: `N#Cc1ccsc1NC(=O)C1CC(=O)N(Cc2ccccc2)C1` (stereo unspecified) was tested. Which Potency did it give?
Answer: The Potency was “inactive”.
